One assay concerns the target T1, GST-Rab26Q123L (UniProt Q9ULW5).
T1 sequence: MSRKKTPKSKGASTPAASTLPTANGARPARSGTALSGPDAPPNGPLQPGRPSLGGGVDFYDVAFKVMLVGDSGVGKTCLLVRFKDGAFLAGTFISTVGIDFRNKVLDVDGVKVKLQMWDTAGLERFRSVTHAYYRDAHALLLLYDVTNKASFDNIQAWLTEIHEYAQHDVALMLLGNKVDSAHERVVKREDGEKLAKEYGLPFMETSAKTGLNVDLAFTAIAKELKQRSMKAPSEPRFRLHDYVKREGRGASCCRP
In words: pull-down; GST-Rab26 fusion proteins coupled to GST-Sepharose 4B resin, incubated with lysates of 293T cells transfected with GFP-tagged proteins, 4°C for 4 h; western blot with GFP antibody; only the target purified. (In general: A western blot detects proteins with antibodies after separation by electrophoresis.)

Chains of the proteins cited; added tags and fusions are not shown. Lines headed by an entry give the natural chain unless they say otherwise; changes in a name come on top.
UniProt P46096: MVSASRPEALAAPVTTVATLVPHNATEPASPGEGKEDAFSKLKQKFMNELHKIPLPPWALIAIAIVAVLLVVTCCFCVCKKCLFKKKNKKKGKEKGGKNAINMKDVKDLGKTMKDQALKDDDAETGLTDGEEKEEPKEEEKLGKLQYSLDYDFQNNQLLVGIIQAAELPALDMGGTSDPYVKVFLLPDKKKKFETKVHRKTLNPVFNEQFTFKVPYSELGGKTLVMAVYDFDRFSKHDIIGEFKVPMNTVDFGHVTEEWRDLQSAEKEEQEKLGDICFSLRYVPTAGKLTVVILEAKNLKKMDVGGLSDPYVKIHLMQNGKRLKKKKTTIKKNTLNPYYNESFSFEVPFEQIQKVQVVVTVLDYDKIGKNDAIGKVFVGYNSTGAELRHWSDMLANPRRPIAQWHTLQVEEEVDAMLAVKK
UniProt P21707: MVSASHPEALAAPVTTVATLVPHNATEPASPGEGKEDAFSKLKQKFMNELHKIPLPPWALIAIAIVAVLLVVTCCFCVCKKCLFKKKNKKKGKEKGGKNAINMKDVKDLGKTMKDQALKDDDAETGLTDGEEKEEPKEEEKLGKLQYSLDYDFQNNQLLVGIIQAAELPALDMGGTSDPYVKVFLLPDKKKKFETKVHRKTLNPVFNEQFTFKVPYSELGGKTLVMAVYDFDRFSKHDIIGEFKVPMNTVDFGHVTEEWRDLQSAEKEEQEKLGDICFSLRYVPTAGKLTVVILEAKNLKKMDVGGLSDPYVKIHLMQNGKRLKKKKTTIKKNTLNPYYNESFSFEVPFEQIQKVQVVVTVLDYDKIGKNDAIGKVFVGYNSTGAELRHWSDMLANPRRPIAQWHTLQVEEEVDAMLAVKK
UniProt Q9R0N7: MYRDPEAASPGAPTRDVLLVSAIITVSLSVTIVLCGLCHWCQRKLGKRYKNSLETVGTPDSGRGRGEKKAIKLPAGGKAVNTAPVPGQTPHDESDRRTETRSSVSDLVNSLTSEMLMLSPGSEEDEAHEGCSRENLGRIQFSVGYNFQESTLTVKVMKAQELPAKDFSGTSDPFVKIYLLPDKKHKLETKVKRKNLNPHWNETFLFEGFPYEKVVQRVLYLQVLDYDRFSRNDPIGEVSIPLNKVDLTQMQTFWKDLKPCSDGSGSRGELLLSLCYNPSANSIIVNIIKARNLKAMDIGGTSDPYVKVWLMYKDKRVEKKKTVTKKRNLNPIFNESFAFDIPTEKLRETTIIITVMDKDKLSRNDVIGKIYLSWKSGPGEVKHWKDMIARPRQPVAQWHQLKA

In another assay the target is T2, GST-Rab26b (UniProt Q9ULW5).
T2 sequence: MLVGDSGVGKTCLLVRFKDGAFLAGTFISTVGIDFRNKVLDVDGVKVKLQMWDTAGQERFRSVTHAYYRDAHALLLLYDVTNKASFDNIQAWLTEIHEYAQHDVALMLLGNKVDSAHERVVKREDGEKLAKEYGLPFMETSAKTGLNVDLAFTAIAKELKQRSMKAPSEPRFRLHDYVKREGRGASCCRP
The assay is described as above.

In the next assay the target is T3, GST-Rab26WT (UniProt Q9ULW5).
T3 sequence: T1 sequence with L123Q
The assay is described as above.

The target in assay [1] is GST-Syt1 (mouse) (UniProt P46096). In words: pull-down; GST-Syt1 beads incubated overnight at 4°C with lysates of 293t cells transfected with GFP-tagged Rab proteins; western blot with GFP antibody; only the target purified.
For assay [2] the target is unchanged. The experiment in a line: pull-down; GST-Syt1 beads incubated overnight at 4°C with lysates of 293t cells cotransfected with myc-Vector or myc-Rab26 and GFP-SNAP25 or GFP-Syntaxin 1A; also cells incubated 5 min at 37°C with or without 10 μM CaCl2; western blot with GFP antibody; only the target purified.
For assay [3] the target is unchanged. The experiment in a line: pull-down; in vitro binding assay with prokaryotic-expressed GST-Syt1 and His-Rab26; both purified.
The target of assay [4] is endogenous Synaptotagmin-1 (INS-1 cells) (rat (endogenous in INS-1)) (UniProt P21707). In words: co-IP; INS-1 cell lysates immunoprecipitated with anti-Syt1 antibody; endogenous proteins; lysis buffer 20 mM HEPES pH 7.4, 1% Triton-100, 100 mM NaCl, 5 mM MgCl2.

Where a chain is given by its changes, count along the chain named. These are yes or no findings as the source states them, for the method shown. For part of these data: Binding seen in cells or lysates may run through a third protein. Some results given as binding are weak or reduced against the parent protein; the word gives no strength. For part of these data: Where a sequence is shown, tags or fusion partners need not be part of it.

Our source for the binding values is paper PMC10284394.

GFP-Syt1 (from UniProt P46096 1-421): the binding entry with GST-Rab26Q123L is “binds”; with GST-Rab26b it was “no binding”; in the assay with GST-Rab26WT, “binds”.

Regarding “GFP-Syt1C2A (1-263aa) (from UniProt P46096 1-263) (domain or fragment)”, the binding entry in the assay with GST-Rab26WT was “binds”.

Turning to “GFP-Syt1C2B (264–422 aa) (from UniProt P46096 264-421) (domain or fragment)”, the binding result in the assay with GST-Rab26WT was “no binding”.

Consider GFP-Syt7 (from UniProt Q9R0N7 1-403), for which the binding result in the assay with GST-Rab26WT is “no binding”.

B1: GFP-Rab26b (protein, UniProt Q9ULW5-1 67-256)
chain: T2 sequence
Regarding B1, the binding entry in the assay with GST-Syt1 (mouse) [1] is recorded as “no binding”.

B2: myc-Rab26 (protein, UniProt Q9ULW5 1-256)
chain: T1 sequence with L123Q
As for B2, in the assay with GST-Syt1 (mouse) [2], the binding entry was “binds”.

B3: His-Rab26 (protein, UniProt Q9ULW5 1-256)
chain: T1 sequence with L123Q
As for B3, in the assay with GST-Syt1 (mouse) [3], the binding result is given as “binds”.

B4: GFP-Rab26 (protein, UniProt Q9ULW5 1-256)
chain: T1 sequence with L123Q
For the molecule B4, the binding result in the assay with GST-Syt1 (mouse) [1] is on record as “binds”.

B5: GFP-Syt4 (protein, UniProt P40749 1-425)
chain: MAPITTSRVEFDEIPTVVGIFSAFGLVFTVSLFAWICCQRRSAKSNKTPPYKFVHVLKGVDIYPENLSSKKKFGGDDKSEVKGKAALPNLSLHLDLEKRDLNGNFPKANPKAGSSSDLENVTPKLFTETEKEANSPESLKSSTSLTSEEKQEKLGTLFLSLEYNFEKKAFVVNIKEAQGLPAMDEQSMTSDPYIKMTILPEKKHRVKTRVLRKTLDPVFDETFTFYGIPYPHIQELSLHFTVLSFDRFSRDDVIGEVLIPLSGIELSDGKMLMTREIIKRNAKKSSGRGELLVSLCYQSTTNTLTVVVLKARHLPKSDVSGLSDPYVKVNLYHAKKRISKKKTHVKKCTPNAVFNELFVFDIPCESLEEISVEFLVLDSERGSRNEVIGRLVLGATAEGSGGGHWKEICDFPRRQIAKWHMLCDG
Take B5: the binding result with GST-Rab26WT was “no binding”.

B6: endogenous Rab26 (INS-1 cells) (protein, UniProt P51156 1-257)
chain: MSRKKTPKSKGGSVPAASTLPAAANGPRLAHPRTARPGPEAPPNGPPQSGRPSLGGTGDFYDVAFKVMLVGDSGVGKTCLLVRFKDGAFLAGTFISTVGIDFRNKVLDVDGMKVKLQIWDTAGQERFRSVTHAYYRDAHALLLLYDITNKDSFDNIQAWLTEIQEYAQQDVVLMLLGNKVDSTQERVVKREDGEKLAKEYGLPFMETSAKSGLNVDLAFTAIAKELKQRSTKAPSEPRFRLHDYVKREGRGVSCCRL
Consider B6, for which, in assay [4], the binding entry is given as “binds”.
